In PubChem BioAssay AID1346378 (National Center for Advancing Translational Sciences (NCATS), 2018):
Where “and” joins values, the source holds several entries; their conditions need not be identical. Identical values can stand only once. Screen size: about 420,000 compounds; about 540 (0.13%) were called active. The shares of active, inactive and inconclusive entries below differ from those in the screen. Cut-off read from the data, not from the text of the source: active = activity change below about -50%; inconclusive = mostly about -30% to -49%; inactive = weaker than that.

Molecular target: Phosphatidylinositol 4-kinase type 2-alpha (Homo sapiens) (UniProt Q9BTU6)
Assay: qHTS for small molecular inhibitors of PI4K2A;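 note: -100% = wells without enzyme as full effect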
Conditions: purified PI4K2A, ADP-Glo luminescence, 1 h; at 76.9 µM, hits give low values
Outline: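 PI4K2A activity was measured by ADP-Glo luminescence: enzyme (4 ug/mL stock) and phosphatidylinositol (1.2 mM stock) in Tris pH 7.5/MgCl2/EGTA/Triton X-100 buffer were reacted with ATP (300 microM stock) for one hour at ambient temperature.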

UniProt Q9BTU6, sequence (Q9BTU6 whole entry, looked up): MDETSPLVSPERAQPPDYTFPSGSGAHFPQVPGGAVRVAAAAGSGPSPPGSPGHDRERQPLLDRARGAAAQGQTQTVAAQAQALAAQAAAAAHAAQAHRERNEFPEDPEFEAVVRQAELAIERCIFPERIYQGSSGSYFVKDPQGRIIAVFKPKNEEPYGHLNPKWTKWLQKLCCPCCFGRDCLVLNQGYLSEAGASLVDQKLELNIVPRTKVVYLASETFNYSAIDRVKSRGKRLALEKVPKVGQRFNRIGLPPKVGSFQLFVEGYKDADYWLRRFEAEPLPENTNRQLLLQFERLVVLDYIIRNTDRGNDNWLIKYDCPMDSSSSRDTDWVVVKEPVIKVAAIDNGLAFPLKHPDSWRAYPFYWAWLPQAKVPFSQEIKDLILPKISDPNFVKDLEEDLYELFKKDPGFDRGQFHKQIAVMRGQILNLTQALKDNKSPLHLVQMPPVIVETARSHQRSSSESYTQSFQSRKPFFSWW

Activity change, negative = inhibition, active:
O=C(CCS(=O)(=O)c1nc(-c2cccs2)cc(C(F)(F)F)n1)Nc1ccc(OC(F)(F)F)cc1 -68.4%
O=c1nccc(N/N=C/c2ccccc2O)[nH]1 -52.9%
COc1ccc(C(C#N)c2ccc(=O)[nH]n2)cc1 (stereo not given) -62.2%
Nc1c(C(=O)NC2CC2)sc2nc3c(c(-c4ccco4)c12)CC/C3=C/c1ccco1 -74%
COc1ccc(C(=O)O/N=C(\N)c2ccccn2)cc1 -89.7%
O=S(=O)(c1cccc(C(F)(F)F)c1)n1c(/C=C/c2ccccc2)nc2ccccc21 -60.6%
CCOc1cc(CNc2ccc(O)cc2)ccc1OCc1ccc(Cl)cc1 -54.5%
O=C(NCc1ccco1)c1cc2ccc(O)cc2oc1=O -76.4%
Cc1ccsc1C(=O)N/N=C/c1ccc2c(c1)OCO2 -53.6%
Cn1c(-c2ccc(Br)o2)nc2ccccc21 -56.4%

Activity change, negative = inhibition, inactive:
CCOC(=O)c1ccc(NC(=O)C2CCCN(S(=O)(=O)c3cnc[nH]3)C2)cc1 (stereo not given) -2.52%
CC[C@@H](C)[C@H]1O[C@]2(CC[C@H]1C)C[C@@H]1C[C@@H](CC=C(C)[C@@H](O[C@H]3C[C@H](OC)[C@@H](O[C@H]4C[C@H](OC)[C@@H](O)[C@H](C)O4)[C@H](C)O3)[C@@H](C)C=CC=C3CO[C@@H]4[C@H](O)C(C)=C[C@@H](C(=O)O1)[C@]34O)O2 3.31%
O=[N+]([O-])c1cc(/C=N/NC(=S)Nc2ccccc2Cl)ccc1Cl -6.45%
COc1ccc(NC(=O)c2ccc(-c3nc(CSc4ccc(C)cc4)c(C)o3)cc2)cc1Cl -1.6%
O=C(NC(=S)NNS(=O)(=O)c1ccc(Cl)cc1)c1cccnc1 3.14%
O=C(NCc1cccs1)c1nc2c(nnn2Cc2ccccc2Cl)c(=O)[nH]1 4.08%
CC(=O)Nc1c(NC(C)C)c2ccccc2oc1=O 4.03%
CCCNC(=O)c1ccccc1NC(=O)Nc1ccccc1C -2.4%
CCS(=O)(=O)C1=NN2C(=N)/C(=C\c3ccc(OC(=O)c4ccco4)c(OC)c3)C(=O)N=C2S1 -8.62%
Cc1cc2nc(-c3cccnc3SCC(=O)NC(C)C)[nH]c2cc1C -1.57%
Clc1ccc(CSc2nc3ccncc3[nH]2)cc1 -14.6%
CC[C@@H](CCCCCCCn1ccc2ccccc21)CCC(=O)N(c1ccccc1)c1ccccc1 -1.48%
O=Nc1c(-c2c(O)[nH]c3cc(Br)ccc23)[nH]c2ccccc12 -9.32% and -17.1%
CCOC(=O)c1c(C)[nH]c(C)c1C(=O)CSc1nc2ccccc2c(=O)n1-c1ccc(C)cc1 0.705%
CCOc1ccc(C2c3c(oc4ccccc4c3=O)C(=O)N2CCCN2CCOCC2)cc1OCC (stereo not given) 3.74%
Cc1cccc(OCc2nnc(SCC(=O)Nc3ccc(N4CCOCC4)cc3)o2)c1 -0.648%
CCCCCn1nnnc1C1(C)Cn2nccc2C(=O)N1Cc1ccco1 (stereo not given) -2.64%
CC1(Oc2ccc(F)cc2)CCN(Cc2ccccc2OC(F)F)C1 (stereo not given) -6.07%
Cc1ccc(C(=O)N/N=C\c2ccc([N+](=O)[O-])o2)cn1 -1.31%

Activity change, negative = inhibition, inconclusive:
COc1cc2cc(CNc3ccccc3)c(=O)n(CC(=O)Nc3cccc(Cl)c3C)c2cc1OC -32.1%
CC(/C=N/N1CCN(c2ccccc2)CC1)=C\c1ccco1 -46.4%
COc1ccc(S(=O)(=O)N2CCOCC2)cc1NC(=O)c1cccc(-n2cccc2)c1 -41.5%
COc1ccc(OCC(=O)Nc2nccs2)cc1 -31.2%
CCOc1cc(CNc2ccc(N(C)C)cc2)cc(Br)c1OCC(=O)NC(C)(C)C -47.1%
CC1=NN(c2ccccc2)C(=O)/C1=C\N1CC(C)OC(C)C1 (stereo not given) -46.4%
O=C1C=C(Nc2ccccc2O)c2ccccc2C1=O -40.5%
Nc1ccccc1SSc1ccccc1N -32.5%
Nc1nc(N)nc(-c2cc(O)ccc2O)n1 -41.3%
Cc1ccc(C(=O)Nc2c(-c3ccc(Cl)cc3)[nH][nH]c2=O)cc1 -33.4%
O=C(O)c1ccc(NC(=O)c2cccs2)cc1 -36.5%
CCOc1ccc(-n2c(N)c(C(=O)NCc3ccco3)c3nc4ccccc4nc32)cc1 -39.9%
COc1cccc(/C=N/Nc2ccnc(=O)[nH]2)c1O -34.4%
NC1=C(Cl)C(=O)c2ccc(S(N)(=O)=O)cc2C1=O -43.4%
COc1ccc(Cc2c(-c3ccco3)nc3ccc(Br)cn23)c(C)c1 -38.4%
CC(C)C1Cc2[nH][nH]c(=O)c2C(C2CC2)O1 (stereo not given) -31.6%
O=C1C=C(N(CCO)Cc2ccccc2)c2ccccc2C1=O -48%
C=C1c2c(Cl)ccc(O)c2C(O)=C2C(=O)[C@]3(O)C(O)=C(C(N)=O)C(=O)[C@@H](N(C)C)[C@@H]3[C@@H](O)C12 (stereo not given in full) -32.7%
Fc1ccccc1/C=C/c1ccc2ccccc2n1 -36.3%
Clc1cccc(Nc2nc(N3CCOCC3)nc(N3CCOCC3)n2)c1 -31.9%
Cc1ccc(/C=C/C(=O)Nc2nnc(SCc3ccc(C#N)cc3)s2)o1 -37.5%
Cc1ccc(-n2nc3c(c2NC(=O)/C=C\c2ccc4c(c2)OCO4)CSC3)cc1 -30.3%
Cc1nc(-c2ccc(NC(=O)c3ccco3)cc2)cs1 -39.2%
COc1ccc2c(c1)Cc1sc(NC(=O)c3ccccc3)nc1-2 -33.3%
CCc1ccc(S(=O)(=O)/N=C2\C=C(Nc3ccc(O)cc3)C(=O)c3ccccc32)cc1 -48.6%
Cc1csc(NC(=O)c2cc(-c3ccco3)nc3ccccc23)n1 -40.7%
